The record followed here is the supplement of paper PMC8728848.

What all share (test): glycan array binding signal (z-score within array); higher = stronger binding
What all share (details): glycan notation: IUPAC condensed, linker removed

Test [1] deals with Glc(b1-3)Glc(b1-3)Glc(b1-3)Glc(b1-3)Glc(b1-3)Glc(b1-3)Glc(b1-3)Glc(b1-3)Glc. In outline: (§1)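 Glycan array data came from 3228 arrays in the Consortium for Functional Glycomics database, and only arrays with an available protein sequence were kept. Glycan names were put into IUPAC-condensed notation, and columns mapping to the same glycan were averaged. The binding signal is a within-array Z-score, averaged across arrays of one protein sequence run at different concentrations or buffers and across linkers. A negative Z-score can be read as non-binding.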

Test [2] addresses Glc(b1-3)Glc(b1-3)Glc(b1-3)Glc(b1-3)Glc(b1-3)Glc(b1-3)Glc(b1-3)Glc(b1-3)Glc(b1-3)Glc. In outline: as §1
Test [3] addresses Glc(b1-3)Glc(b1-3)Glc(b1-3)Glc(b1-3)Glc(b1-3)Glc(b1-3)Glc(b1-3)Glc(b1-3)Glc(b1-3)Glc(b1-3)Glc. In outline:
as §1

Test [4] addresses Glc(b1-3)Glc(b1-3)Glc(b1-3)Glc(b1-3)Glc(b1-3)Glc(b1-3)Glc(b1-3)Glc(b1-3)Glc(b1-3)Glc(b1-3)Glc(b1-3)Glc. In outline:
as §1

Test [5] addresses Glc(b1-3)Glc(b1-3)Glc(b1-3)Glc(b1-3)Glc(b1-3)Glc(b1-3)Glc(b1-3)Glc(b1-3)Glc(b1-3)Glc(b1-3)Glc(b1-3)Glc(b1-3)Glc. In short, it runs like this:
as §1

In the next test the target is Glc(b1-4)Glc. In outline: as §1
The target in the next test is Glc(b1-4)Glc(b1-4)Glc. In outline:
as §1

Test [6] has as its target Glc(b1-4)Glc(b1-4)Glc(b1-4)Glc. In outline:
as §1

The target of test [7] is Glc(b1-4)Glc(b1-4)Glc(b1-4)Glc(b1-4)Glc. In short, it runs like this:
as §1

Test [8] concerns the target Glc(b1-4)Glc(b1-4)Glc(b1-4)Glc(b1-4)Glc(b1-4)Glc. In short, it runs like this: as §1
A further test concerns the target Glc(b1-6)Glc. In short, it runs like this: as §1
The next test addresses Glc(b1-6)Glc(b1-6)Glc. In outline:
as §1

Test [9] addresses Glc(b1-6)Glc(b1-6)Glc(b1-6)Glc. In short, it runs like this:
as §1

In test [10] the target is Glc(b1-6)Glc(b1-6)Glc(b1-6)Glc(b1-6)Glc. In outline:
as §1

For test [11], the target named is Glc(b1-6)Glc(b1-6)Glc(b1-6)Glc(b1-6)Glc(b1-6)Glc. In outline: as §1
Test [12] concerns the target Glc(b1-6)Glc(b1-6)Glc(b1-6)Glc(b1-6)Glc(b1-6)Glc(b1-6)Glc. In short, it runs like this:
as §1

For test [13], the target named is Glc(b1-6)Glc(b1-6)Glc(b1-6)Glc(b1-6)Glc(b1-6)Glc(b1-6)Glc(b1-6)Glc. In outline:
as §1

Test [14] addresses Glc(b1-6)Glc(b1-6)Glc(b1-6)Glc(b1-6)Glc(b1-6)Glc(b1-6)Glc(b1-6)Glc(b1-6)Glc. In short, it runs like this:
as §1

Test [15] has as its target Glc(b1-6)Glc(b1-6)Glc(b1-6)Glc(b1-6)Glc(b1-6)Glc(b1-6)Glc(b1-6)Glc(b1-6)Glc(b1-6)Glc. In outline:
as §1

The target of test [16] is Glc(b1-6)Glc(b1-6)Glc(b1-6)Glc(b1-6)Glc(b1-6)Glc(b1-6)Glc(b1-6)Glc(b1-6)Glc(b1-6)Glc(b1-6)Glc. In short, it runs like this: as §1
Test [17] has as its target Glc(b1-6)Glc(b1-6)Glc(b1-6)Glc(b1-6)Glc(b1-6)Glc(b1-6)Glc(b1-6)Glc(b1-6)Glc(b1-6)Glc(b1-6)Glc(b1-6)Glc. In short, it runs like this: as §1
The target of the next test is GlcA(b1-3)Gal. In outline: as §1
The target of a further test is GlcA(b1-3)Gal(b1-4)Glc. In short, it runs like this: as §1

The list shows a part of the results.

B1: CLEC5A (Homo sapiens), Q9NY25 (protein)
chain: MNWHMIISGLIVVVLKVVGMTLFLLYFPQIFNKSNDGFTTTRSYGTVSQIFGSSSPSPNGFITTRSYGTVCPKDWEFYQARCFFLSTSESSWNESRDFCKGKGSTLAIVNTPEKLKFLQDITDAEKYFIGLIYHREEKRWRWINNSVFNGNVTNQNQNFNCATIGLTKTFDAASCDISYRRICEKNAK
With B1, the “glycan array binding signal (z-score)” value in test [1] is -0.32; in test [2], -0.32; in [3], -0.32; in test [4], 1.32; in [5], -0.32; in the test with Glc(b1-4)Glc, -0.371. Also, the “glycan array binding signal (z-score)” value with Glc(b1-4)Glc(b1-4)Glc is -0.32; in test [6], 0.837; in test [7], -0.32; in [8], 0.74; with Glc(b1-6)Glc, 0.044; in the test with Glc(b1-6)Glc(b1-6)Glc, 0.355. In addition, the “glycan array binding signal (z-score)” value was 1.42 in test [9]; 0.644 in test [10]; -0.32 in [11]; 0.548 in test [12]; -0.32 in test [13]; -0.32 in [14]. In addition, the “glycan array binding signal (z-score)” value was 1.13 in test [15]; 1.61 in [16]; 1.8 in test [17]; -0.34 with GlcA(b1-3)Gal; -0.32 with GlcA(b1-3)Gal(b1-4)Glc.
